According to paper PMC9529947:
Positions count from the first letter of the chain named. No constants are given. Whether binding was seen depends on the method and setting. Binding seen in cells or lysates may run through a third protein. Some binding calls cover weakened binding; strength is not graded here. For some assays here: Where a sequence is shown, tags or fusion partners need not be part of it. Each block holds one molecule with its values, some of them ahead of it.

Sequences of proteins named here, by UniProt entry; tags and fusion partners are left off.
UniProt Q9QUI0: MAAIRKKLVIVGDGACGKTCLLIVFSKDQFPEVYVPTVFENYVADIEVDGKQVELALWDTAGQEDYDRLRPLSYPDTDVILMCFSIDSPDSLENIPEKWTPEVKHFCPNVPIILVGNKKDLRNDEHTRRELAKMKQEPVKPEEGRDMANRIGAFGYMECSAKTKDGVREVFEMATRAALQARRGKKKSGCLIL
UniProt Q62159: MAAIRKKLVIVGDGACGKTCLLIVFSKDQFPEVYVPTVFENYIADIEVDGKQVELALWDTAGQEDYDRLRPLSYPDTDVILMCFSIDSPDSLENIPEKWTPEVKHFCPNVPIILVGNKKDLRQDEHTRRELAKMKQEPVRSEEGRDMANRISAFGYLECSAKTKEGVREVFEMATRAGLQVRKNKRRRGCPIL

Legend:
[1] = molecular target: T1, RhoGDIα (endogenous, 293-CDC42 cells) (human (endogenous in HEK293T-derived 293-CDC42 cells)) (UniProt P52565); experiment: proximity ligation; Duolink In Situ Orange kit on fixed, permeabilised 293-CDC42 cells, control or LNX1-overexpressing; probes RhoC/RhoGDIα or HA/RhoGDIα
T1 sequence: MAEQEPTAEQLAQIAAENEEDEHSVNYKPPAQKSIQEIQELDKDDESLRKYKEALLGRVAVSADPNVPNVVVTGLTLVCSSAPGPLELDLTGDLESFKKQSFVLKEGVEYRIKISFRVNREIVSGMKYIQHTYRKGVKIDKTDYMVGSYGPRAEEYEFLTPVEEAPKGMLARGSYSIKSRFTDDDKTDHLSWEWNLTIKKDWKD

[2] = molecular target: T2, RhoGDIα (endogenous, mouse brain) (mouse (endogenous in brain)) (UniProt Q99PT1); experiment: co-IP; agarose-conjugated mouse anti-RhoGDIα antibody, overnight at +4 °C, on Lis1fl/+ or Lis1fl/- mouse brain lysate; CelLyticM with 20 mM NEM; blots for RhoC, RhoA, Rac3
T2 sequence: T1 sequence with V71I, G74R, S81T, V162M, S176N, D201E

[3] = molecular target: T3, FLAG-ARHGDIA (human (from the printed accession)) (UniProt P52565); experiment: co-IP; EZview Red Anti-FLAG M2 Affinity Gel on lysates of co-transfected HEK293T cells; FLAG-tagged protein as bait, EGFP-tagged protein detected by blot
T3 sequence: T1 sequence

[4] = molecular target: T4, LNX1-Myc-FLAG (mouse (from the printed accession)) (UniProt O70263); experiment: as above
T4 sequence: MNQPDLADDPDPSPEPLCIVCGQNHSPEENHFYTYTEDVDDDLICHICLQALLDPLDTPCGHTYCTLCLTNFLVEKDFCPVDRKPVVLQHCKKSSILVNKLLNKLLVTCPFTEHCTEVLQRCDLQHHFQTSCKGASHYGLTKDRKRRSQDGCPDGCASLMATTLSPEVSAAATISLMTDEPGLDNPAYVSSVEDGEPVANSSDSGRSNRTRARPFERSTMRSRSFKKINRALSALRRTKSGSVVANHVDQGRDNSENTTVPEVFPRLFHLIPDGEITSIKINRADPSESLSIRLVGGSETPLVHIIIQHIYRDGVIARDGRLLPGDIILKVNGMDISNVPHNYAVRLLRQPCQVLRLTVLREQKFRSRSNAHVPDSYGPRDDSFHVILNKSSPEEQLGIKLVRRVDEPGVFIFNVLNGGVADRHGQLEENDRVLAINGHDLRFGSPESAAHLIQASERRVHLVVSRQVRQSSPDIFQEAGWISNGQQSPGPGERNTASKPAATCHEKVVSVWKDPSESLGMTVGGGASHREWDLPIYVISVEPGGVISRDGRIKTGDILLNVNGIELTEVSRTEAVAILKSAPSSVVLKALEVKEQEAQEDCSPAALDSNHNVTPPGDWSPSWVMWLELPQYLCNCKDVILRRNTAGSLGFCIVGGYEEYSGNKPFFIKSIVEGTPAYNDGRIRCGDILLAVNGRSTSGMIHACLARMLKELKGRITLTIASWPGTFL

binding [1]: binds
Molecule: HA-tagged Cdc42 (293-CDC42 cells) (from UniProt P60766-2 1-191)

binding [2]: binds
Molecule: RhoA (endogenous, mouse brain) (from UniProt Q9QUI0 1-193)

binding [2]: binds
Molecule: RhoC (endogenous, mouse brain) (from UniProt Q62159 1-193)

binding [3]: no binding
binding [4]: binds
B1: EGFP-LIS1 (protein, UniProt P63005-1 1-410)
chain: MVLSQRQRDELNRAIADYLRSNGYEEAYSVFKKEAELDMNEELDKKYAGLLEKKWTSVIRLQKKVMELESKLNEAKEEFTSGGPLGQKRDPKEWIPRPPEKYALSGHRSPVTRVIFHPVFSVMVSASEDATIKVWDYETGDFERTLKGHTDSVQDISFDHSGKLLASCSADMTIKLWDFQGFECIRTMHGHDHNVSSVAIMPNGDHIVSASRDKTIKMWEVQTGYCVKTFTGHREWVRMVRPNQDGTLIASCSNDQTVRVWVVATKECKAELREHEHVVECISWAPESSYSSISEATGSETKKSGKPGPFLLSGSRDKTIKMWDVSTGMCLMTLVGHDNWVRGVLFHSGGKFILSCADDKTLRVWDYKNKRCMKTLNAHEHFVTSLDFHKTAPYVVTGSVDQTVKVWECR
